From the supplement of paper PMC11876631 come the findings set out here.

The target of this data set is Escherichia coli (laboratory strain). The data set can be described thus: barcode share on antibiotic plates over drug-free plates; higher = less susceptible. As to the method: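 A pool of E. coli strains, each edited to carry one amino-acid change in an essential protein, was grown for 48 h on minimal glucose agar with or without antibiotic; strain barcodes were sequenced; mean of two replicates.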

Setting [1] is: antibiotic: carbenicillin, 2× MIC (3.1 µg/mL).
Where [2] appears, read: antibiotic: gentamicin, 2× MIC (MIC 0.45 µg/mL).

Where a chain is given by its changes, count along the chain named. Names may count otherwise. ± gives the standard deviation of the averaged measurements. Laboratory Escherichia coli strains with one amino-acid change in an essential protein, pooled on minimal glucose agar with carbenicillin or gentamicin at twice the control MIC (plus kanamycin and chloramphenicol for the plasmids), 48 h. Fold change of barcode share against drug-free plates; higher = less susceptible. Active = above 20 in both replicates (the paper's putatively resistant). '<' = one read or none on drug, '>' = one read or none on a drug-free plate. Shares are relative, so most strains fall below 1 when a few take over. Listed are strains with at least 15 reads on both drug-free plates, and hits; most hits rest on fewer reference reads. Replicate rank correlation about 0.5. Edits are read from barcodes.

B1: proB I313A (protein)
chain: MSDSQTLVVKLGTSVLTGGSRRLNRAHIVELVRQCAQLHAAGHRIVIVTSGAIAAGREHLGYPELPATIASKQLLAAVGQSRLIQLWEQLFSIYGIHVGQMLLTRADMEDRERFLNARDTLRALLDNNIVPVINENDAVATAEIKVGDNDNLSALAAILAGADKLLLLTDQKGLYTADPRSNPQAELIKDVYGIDDALRAIAGDSVSGLGTGGMSTKLQAADVACRAGIDTIIAAGSKPGVIGDVMEGISVGTLFHAQATPLENRKRWIFGAPPAGEITVDEGATAAILERGSSLLPKGIKSVTGNFSRGEVARICNLEGRDIAHGVSRYNSDALRRIAGHHSQEIDAILGYEYGPVAVHRDDMITR
Turning to B1, the “fold change of barcode share” value under setting [1] came out at 0.513 ± 0.052 and the “fold change of barcode share” value under setting [2] is 0.013 ± 0.0094.

B2: proB L168A (protein)
chain: B1 chain with L168A, A313I
In the case of B2, the “fold change of barcode share” value was 0.371 ± 0.072 under setting [1] and under 0.00917 under setting [2].

B3: proB I45A (protein)
chain: B1 chain with I45A, A313I
For B3, the “fold change of barcode share” value was 0.604 ± 0.36 under setting [1] and under 0.0034 under setting [2].

B4: proB I45P (protein)
chain: B1 chain with I45P, A313I
On to B4, for which the “fold change of barcode share” value under setting [1] was 1.32 ± 1 and the “fold change of barcode share” value under setting [2] was under 0.00556.

B5: proA M277D (protein)
chain: MLEQMGIAAKQASYKLAQLSSREKNRVLEKIADELEAQSEIILNANAQDVADARANGLSEAMLDRLALTPARLKGIADDVRQVCNLADPVGQVIDGGVLDSGLRLERRRVPLGVIGVIYEARPNVTVDVASLCLKTGNAVILRGGKETCRTNAATVAVIQDALKSCGLPAGAVQAIDNPDRALVSEMLRMDKYIDMLIPRGGAGLHKLCREQSTIPVITGGIGVCHIYVDESVEIAEALKVIVNAKTQRPSTCNTVETLLVNKNIADSFLPALSKQDAESGVTLHADAAALAQLQAGPAKVVAVKAEEYDDEFLSLDLNVKIVSDLDDAIAHIREHGTQHSDAILTRDMRNAQRFVNEVDSSAVYVNASTRFTDGGQFGLGAEVAVSTQKLHARGPMGLEALTTYKWIGIGDYTIRA
On to B5, for which the “fold change of barcode share” value reads like this: under setting [1], 0.338 ± 0.17; under setting [2], 0.0138 ± 0.005.

B6: proA L402Q (protein)
chain: B5 chain with D277M, L402Q
With B6, the “fold change of barcode share” value under setting [1] was 0.339 ± 0.075 and the “fold change of barcode share” value under setting [2] was 0.0129 ± 0.01.

B7: proA I333A (protein)
chain: B5 chain with D277M, I333A
In the case of B7, the “fold change of barcode share” value was determined as 0.37 ± 0.11 under setting [1] and 0.00505 ± 8.2e-05 under setting [2].

B8: proA L402W (protein)
chain: B5 chain with D277M, L402W
Take B8: the “fold change of barcode share” value under setting [1] is > 26.2 [active].

B9: proA L402P (protein)
chain: B5 chain with D277M, L402P
Turning to B9, the “fold change of barcode share” value under setting [1] was 25.6 [active].

B10: proA I333W (protein)
chain: B5 chain with D277M, I333W
With B10, the “fold change of barcode share” value was 1.91 ± 0.5 under setting [1] and 0.0138 ± 0.0061 under setting [2].

B11: proA L402A (protein)
chain: B5 chain with D277M, L402A
On to B11, for which the “fold change of barcode share” value by setting is: under setting [1], 0.338 ± 0.016; under setting [2], 0.0052 ± 0.0045.

B12: proA I333Q (protein)
chain: B5 chain with D277M, I333Q
Turning to B12, the “fold change of barcode share” value stood at 0.507 ± 0.22 under setting [1] and 0.0101 ± 0.001 under setting [2].
